In the supplement of paper PMC3334620:
The full ranking holds about 33,000 sequences; the median of “E-score (-0.5 to 0.5)” is about -0.041, and the highest 2% start at about 0.37. The list shows a part of the results.

Target: T1, Ecm22 (UniProt Q05958)
T1 sequence: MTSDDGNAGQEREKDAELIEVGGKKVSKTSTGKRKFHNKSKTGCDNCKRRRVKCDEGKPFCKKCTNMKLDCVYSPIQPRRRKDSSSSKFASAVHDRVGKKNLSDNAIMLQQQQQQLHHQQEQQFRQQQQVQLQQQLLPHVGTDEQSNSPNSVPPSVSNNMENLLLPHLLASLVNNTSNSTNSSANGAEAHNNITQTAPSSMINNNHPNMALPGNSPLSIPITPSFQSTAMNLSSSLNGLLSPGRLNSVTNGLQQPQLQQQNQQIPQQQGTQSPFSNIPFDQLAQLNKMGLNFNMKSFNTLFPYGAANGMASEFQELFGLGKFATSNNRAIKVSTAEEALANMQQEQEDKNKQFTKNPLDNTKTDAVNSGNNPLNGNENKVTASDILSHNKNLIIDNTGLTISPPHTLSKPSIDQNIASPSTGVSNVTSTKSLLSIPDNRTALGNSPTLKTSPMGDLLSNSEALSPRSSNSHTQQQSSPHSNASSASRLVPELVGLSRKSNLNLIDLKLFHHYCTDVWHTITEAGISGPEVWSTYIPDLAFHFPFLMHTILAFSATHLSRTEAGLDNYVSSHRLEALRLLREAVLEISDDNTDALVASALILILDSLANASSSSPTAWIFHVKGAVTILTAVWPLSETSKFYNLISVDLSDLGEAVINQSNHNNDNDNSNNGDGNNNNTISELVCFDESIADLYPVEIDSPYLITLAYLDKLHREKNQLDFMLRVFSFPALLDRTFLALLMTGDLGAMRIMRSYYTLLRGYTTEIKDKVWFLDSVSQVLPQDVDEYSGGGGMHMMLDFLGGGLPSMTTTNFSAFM
Assay: PBM E-score (8-mer binding enrichment) (E-score (-0.5 to 0.5)); higher = stronger / more preferred TF binding; most listed sequences are background and not binding sites
Conditions: protein concentration: 200 nM; construct: GST-full length
In short: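 Full-length yeast transcription factors or their DNA-binding domains, GST-tagged and expressed with PURExpress, were applied at about 100-200 nM to universal all-10-mer Agilent arrays. These arrays had been made double-stranded by primer extension on fresh or once-stripped slides. Detection used fluorescent anti-GST, normalisation used masliner, and E-scores for ungapped eight-base words pooled with reverse complements came from the Universal PBM Analysis Suite.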

In order of rising “PBM E-score” value:
1. GAAAGTGC  -0.364
2. AGACACAG  -0.336
3. ACCTCAGG  -0.335
4. AGGGAGGG  -0.307
5. CACCCGGC  -0.296
6. AGTATGCA  -0.271
7. AGAATGAC  -0.266
8. ATGGGTGG  -0.257
9. CTGGTTGA  -0.248
10. CAGTCTTC  -0.246
11. ACATTTGG  -0.242
12. CAGACTCC  -0.2
13. ATAAAGGA  -0.198
14. CATCCGCC  -0.187
15. CAGTATGA  -0.185
16. AGGCTGGA  -0.161
17. AGACACAT  -0.158
18. CAGAGGCG  -0.158
19. AGTAGTGA  -0.155
20. AATCAGAT  -0.143
21. CGCGCCCC  -0.142
22. AGATTAGA  -0.14
23. ATCAGGCC  -0.128
24. CCGTCATC  -0.126
25. GGCTATCA  -0.115
26. GGAAGCTA  -0.108
27. CACAGTAA  -0.101
28. AAGTGAAT  -0.0871
29. ATGATTCA  -0.0797
30. GCTGAGCA  -0.0744
31. GTAGCTGA  -0.0734
32. CGGAAGAG  -0.0717
33. ACGCAGAC  -0.0633
34. AGAGGGAT  -0.0615
35. TAGTTACA  -0.0578
36. GCCCGCCC  -0.0527
37. AGTCCGGA  -0.036
38. ACTCACAT  -0.033
39. ATGTGACG  -0.0295
40. TGCCGCCA  -0.0293
41. CCAATAAA  -0.0255
42. GTCCGGAC  -0.0153
43. AGCTCGAG  -0.00883
44. ACAAGTAA  -0.00762
45. GCACAGAC  -0.00585
46. ACGGCATG  -0.00198
47. AACTAGAC  0.00302
48. CGCCAGAC  0.00345
49. AAAATAAT  0.00354
50. GAGCGCAC  0.00729
51. CTCTACCA  0.00853
52. GAGCTGCA  0.0122
53. AAGAGTTG  0.0167
54. GTCATATA  0.0221
55. AAAAGAAC  0.0234
56. ACAAACTC  0.0302
57. ACTAATCT  0.0304
58. GTTAACCA  0.0331
59. ACTCGCTG  0.0365
60. ATGACCTA  0.0367
61. CGGTATGC  0.0372
62. CTCGCCAG  0.0513
63. GAATTTCC  0.0531
64. CTTTAAGA  0.0616
65. CACTCGAA  0.0641
66. ACACGATC  0.0695
67. GAAGGAAC  0.0856
68. CACCACGA  0.0869
69. GTGCAAGA  0.0911
70. GCGGACAA  0.0928
71. ACCAATCG  0.0931
72. GGATATGA  0.103
73. CCCCGTCG  0.115
74. CGAAGGTA  0.116
75. GACCTGTA  0.12
76. ATTATTCC  0.123
77. GTTCCAAC  0.135
78. AAGTCGGA  0.141
79. AGTAGCGA  0.153
80. GAATACCC  0.154
81. CTCGATAA  0.184
82. CTTTATAC  0.23
83. GAGCGACA  0.27
84. ACCGTTCA  0.296
85. AAGTTCGT  0.319
86. CGTATACG  0.489
